The source gives no read counts; variants with many changes may rest on few reads.
B1: LINE1-mini (parent)
chain: GGCAGAGCUCAACACAGCGUGGCAAAGUGGCUGUGGCUAGACUGCC

Variants of: B1
Test: self-cleavage, relative activity (ratio to wild type); higher = more cleavage; in vitro, sequencing; the parent is a self-cleaving ribozyme

Variant	self-cleavage
GGGAGAGGGCACCACAGCGUGCCAAAGUGCCUUUGGCUAGACUCCC [C3G C8G U9G A12C G22C G30C G33U G44C]	0
GGGAGAGUUCAACACAGCGUGGCACAGUGGCUGUGGCUAGCCGGCC [C3G C8U A25C A41C U43G]	0.24
GGGAGAGUUAAACACAGUGUGACAAAGUGGCUGUGGCCAGACUGCC [C3G C8U C10A C18U G22A U38C]	0.03
GGGAGAGUUAAACACAGCGUGGCAAAGUGGCUGUGGCAAGACUGCC [C3G C8U C10A U38A]	0.02
GGGAGAGUUCAACACACCGUGGCAAAGUGGCUGUGGCUAGCCUGCC [C3G C8U G17C A41C]	0.05
GGGAGAGCUACACACAGCGUAGCAAAGUGGCUGUGGCUAGACUGCC [C3G C10A A11C G21A]	0.01
GGGAGAGCUAACCACUGCGUGGCAAAGUAGCUGUGGCUAGACUGCC [C3G C10A A12C A16U G29A]	0.01
GGGAGAGCUAAACGCAGCGUCGCAAGGUGGCUGUGGCUAGACCGCC [C3G C10A A14G G21C A26G U43C]	0.64
GGGAGAGCUAAACAAUGCGUGGCAAAGUGGCUGUGGCUAGAUUGUC [C3G C10A C15A A16U C42U C45U]	0.02
GGGAGAGCUAAACACAGUGUGGCUAAGUGGCUGUGGCUAGACCGCC [C3G C10A C18U A24U U43C]	0.03
GGGAGAGCUAAACACAUCGUGGCAAAGUGGCUGUGGCUAGACUGCC [C3G C10A G17U]	0.03
GGGAGAGCUAAACACAUCGCGGCACAGUGGCUGUGGCUAGACUGCC [C3G C10A G17U U20C A25C]	0.03
GGGAGAGCUAAACACAGCCAGGCAAAGUGGCUGUGGCUAGACUGUC [C3G C10A G19C U20A C45U]	0.02
GGGAGAGCUAAACACAGCGUGGCAAACUGGUUGUGGCUAGACUGCC [C3G C10A G27C C31U]	0.05
GGGAGAGCUGAACACUGCGUAGCAAAGUGGCUGUGGCUAGACUGCC [C3G C10G A16U G21A]	0.04
GGGAGAGCUGAACAAAGCGUGGCAAAAUGGCUGUGGCUAGACUGCC [C3G C10G C15A G27A]	0.01
GGGAGAGCUGAACACAGCGUGGCAAAGUGGCUGUGGCUAGACAGCC [C3G C10G U43A]	0
GGGAGAGCUUAACCCAGCGUGGCAAAGUGGCUGUGGCUAGACUGCC [C3G C10U A14C]	0.03
GGGAGAGCUUAAUACAGCGUGGCAAAGUAACUGAGGCUUGACUGCU [C3G C10U C13U G29A G30A U34A A39U C46U]	0.05

Variant	self-cleavage
GGGAGAGCUUAACACAGCGUGGCAAAGUGGCUGUGGCAAGACUGCC [C3G C10U U38A]	0.06
GGGAGAGCUUAACACAGCGUGGCAAAGUGGCUGUGGCUAGACAGCC [C3G C10U U43A]	0.06
GGGAGAGCUCAAAGCAGCGUGGCAAAGUGGCUUUGGCUAGACUGCC [C3G C13A A14G G33U]	0.16
GGGAGAGCUCAAAACAGCGUGGCAGAGUGGCUGUGGCUAGACUGCC [C3G C13A A25G]	0.11
GGGAGAGCUCAAAACAGCGUGGCAUAGUGGCUGUGGCUAGACAGCC [C3G C13A A25U U43A]	0.06
GGGAGAGCUCAAAACAGUGUGGCAAAGUGGCUCUGGCUAGACUGCC [C3G C13A C18U G33C]	0.09
GGGAGAGCUCAAAACAGCGUGGCAAAGUGGCUGUUGCUAGACUGCC [C3G C13A G35U]	1.38
GGGAGAGCUCAAGCCAGCGUGGCAAAGUGGCUGUGGCUAGACUGCC [C3G C13G A14C]	0.82
GGGAGAGCUCAAGUCAUCGUGGCACAGUGGCUGUGGCUAGACUGCC [C3G C13G A14U G17U A25C]	0.1
GGGAGAGCUCAAGACAGCGUGGCAAUCUGGCUGUGGCUAGACUGCC [C3G C13G A26U G27C]	0.02
GGGAGAGCUCAAUACUGCGUGGCAGAAUGGCUGUGGUUAGACUGCC [C3G C13U A16U A25G G27A C37U]	0
GGGAGAGCUCAAUACACAGUGGUAAAGUGGCUGUGGCUAGACUGCC [C3G C13U G17C C18A C23U]	0.09
GGGAGAGCUCAAUACAGCGUGGCAAAGUGGCUGUGGCUAGACUACC [C3G C13U G44A]	0.2
GGGAGAGCUCAAUACAGCGUGGCAAAGUGGCUGUGGCAAGACUGCC [C3G C13U U38A]	0.03
GGGAGAGCUCAACAAAGCGUGGAAAAGUGGCUGUGGUUAGACUGCC [C3G C15A C23A C37U]	0.14
GGGAGAGCUCAACAAAGCGUGGCAAAGUGGCUGUUGCUAGACUGCC [C3G C15A G35U]	0.11
GGGAGAGCUCAACAAAGCGUGGCAAAGUGGCUGUGGCUAUACUGCC [C3G C15A G40U]	0.07
GGGAGAGCUCAACAGAGCGUGGCAAAGUGGCUGUGACUAGACUGCC [C3G C15G G36A]	0.07
GGGAGAGCUCAACAGAGCGUGGCAAAGUGGCUGAGGCUAGACUUCC [C3G C15G U34A G44U]	0.03

Variant	self-cleavage
GGGAGAGCUCAACAUAGCGUGGCAAAGUGGCUGUGGCUAGACUGCU [C3G C15U C46U]	0.19
GGGAGAGCUCAACAUAGCGUGGCAAAGUGACUGUGGCUAAACUGCC [C3G C15U G30A G40A]	0.25
GGGAGAGCUCAACAUAGCGUGGCAAAGUGCCUGUGGCUAGACUGCC [C3G C15U G30C]	0.24
GGGAGAGCUCAACACAGAGUGGCAACGUGGCUGUAGCUAGACUACC [C3G C18A A26C G35A G44A]	0.02
GGGAGAGCUCAACACAGAGUGGCAAAGUGGCUGUGGGUAGACUGCC [C3G C18A C37G]	0.03
GGGAGAGCUCAACACAGAGUGGCAAAAUGGCUGUGGCUAGACUGCC [C3G C18A G27A]	0.24
GGGAGAGCUCAACACAGUGUGGCAAAGUGGGUAUGGCUAUACUGCC [C3G C18U C31G G33A G40U]	0.03
GGGAGAGCUCAACACAGUGUGGCAAAGUGGGAGUGGCUAGACUGCA [C3G C18U C31G U32A C46A]	0.03
GGGAGAGCUCAACACAGUGUGCCAAAGUGGCUGUGGCUAGACUGCC [C3G C18U G22C]	0.37
GGGAGAGCUCAACACAGUGUGGCAAAGUGGCUCUGGCUAGACUGCC [C3G C18U G33C]	0.06
GGGAGAGCUCAACACAGUGUGGCAAAGUGGCUGUGGCUAGACUUCC [C3G C18U G44U]	0.43
GGGAGAGCUCAACACAGCGUGGAAAAGUGGCAAUGGCUAGAGUGCC [C3G C23A U32A G33A C42G]	0.07
GGGAGAGCUCAACACAGCGUGGAAAAGUGGCUGGGGCUAGACUGCC [C3G C23A U34G]	0.07
GGGAGAGCUCAACACAGCGUGGUAGAGUGGCUGUGGCUAGAAUGCC [C3G C23U A25G C42A]	0.05
GGGAGAGCUCAACACAGCGUGGUAAAGUGGCCGUGGCAAGCCUGCC [C3G C23U U32C U38A A41C]	0.28
GGGAGAGCUCAACACAGCGUGGCAAAGUGGGUGUGGCUCGACUGUC [C3G C31G A39C C45U]	0.02
GGGAGAGCUCAACACAGCGUGGCAAAGUGGCUGUGGCUAGAAUGUC [C3G C42A C45U]	0.25
GGGAGAGCUCAACACAGCGUGGCAAAGUGGCUGUGGCUAGAAUGCU [C3G C42A C46U]	0.06

From the RNAGym collection of RNA variant scans (doi:10.7554/elife.90254)
